# Laboratory results from PubChem BioAssay AID1476 (National Center for Advancing Translational Sciences (NCATS), 2009).
# About 4,500 (2.2%) of roughly 200,000 compounds were called active. The inconclusive results got no clear call from the source; some entries with a clear call stand among them for comparison. Calls come from the whole dose curve; as a rule, active = well fitted inhibition curve with a large enough effect; inconclusive = small, poorly fitted or top-dose-only effect, or effect the other way; inactive = flat fitted curve, though single readings scatter. Where the call is inconclusive, the potency comes from a doubtful curve fit. A structure can be active in one record and inactive in another.
# Target: Cruzipain (Trypanosoma cruzi) (UniProt P25779)
# UniProt P25779, sequence (P25779 whole entry, looked up): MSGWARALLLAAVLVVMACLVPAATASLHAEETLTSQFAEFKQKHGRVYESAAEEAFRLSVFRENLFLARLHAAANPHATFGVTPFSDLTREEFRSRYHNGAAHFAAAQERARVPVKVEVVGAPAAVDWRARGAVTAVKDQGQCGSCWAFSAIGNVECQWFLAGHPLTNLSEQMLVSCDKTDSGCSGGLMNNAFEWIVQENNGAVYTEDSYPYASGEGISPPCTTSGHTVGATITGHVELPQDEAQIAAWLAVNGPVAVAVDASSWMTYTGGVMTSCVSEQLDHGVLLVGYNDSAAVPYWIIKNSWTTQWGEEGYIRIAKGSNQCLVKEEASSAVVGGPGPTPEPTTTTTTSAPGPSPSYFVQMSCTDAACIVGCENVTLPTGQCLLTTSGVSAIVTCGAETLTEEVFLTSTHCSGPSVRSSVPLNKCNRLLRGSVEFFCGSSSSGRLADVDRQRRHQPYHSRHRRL
# Test: qHTS Assay for Promiscuous and Specific Inhibitors of Cruzain (without detergent); note: nearly all actives have a fitted effect of over 40% in size;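 for max response, negative = inhibition: plate controls were enzyme without inhibitor for no effect and buffer without enzyme for full effect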
# Details: purified cruzain, Z-FR-AMC fluorescence, no detergent
# In short: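 Detergent-free condition (0.00005% Triton X-100) in acetate buffer pH 5.5 with DTT. 1.5 nM enzyme and compound were pre-mixed 15 min, then 2 uM Z-FR-AMC substrate added; reaction progress from fluorescence change between first and third reads (60 s).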
# Potency is the fitted concentration of half-maximal effect; tags give direction and shape of the fitted curve.
Structure (SMILES),Potency,"max response, negative = inhibition"
COC(=O)CSc1nnc2c3c4c(sc3nc(-n3nc(C)cc3C)n12)COC(C)(C)C4,"inconclusive: 39.8 µM [activator, single point]",
CCOC(=O)c1c(NC(=O)/C=C/c2ccc(OCC)c(OC)c2)sc2c1CCC2,,inactive: 18.9%
COCCn1c(=NC(=O)c2ccc(S(=O)(=O)N3CCc4ccccc4C3)cc2)sc2cc(OC)ccc21,active: 3.98 µM,
COc1cccc(CNC(=O)CCCN2C(=O)CSc3c2c(C)nn3-c2ccccc2)c1OC,"inconclusive: 39.8 µM [activator, single point]",
Cc1ccc(S(=O)(=O)c2nnn3c2nc(N2CCC(C)CC2)c2cc(Cl)ccc23)cc1C,"inconclusive: 39.8 µM [inhibitor, single point]",
CCc1ccc(CNC(=O)C2CC(=O)N(CCc3ccc(C)cc3)C2)cc1 (stereo not given),"inconclusive: 39.8 µM [activator, single point]",
O=C(CSc1nnc2c(n1)[nH]c1ccccc12)OCc1ccccc1,active: 25.1 µM,
O=C(c1cccc(C(=O)N2CCN(c3ccccc3F)CC2)n1)N1CCN(c2ccccc2F)CC1,"inconclusive: 39.8 µM [activator, single point]",
CCOC(=O)c1cc(-c2ccccc2)sc1NC(=O)CN1C(=O)NC(CC)(c2ccccc2)C1=O (stereo not given),active: 10 µM,
Cc1ccccc1Cn1c(CN2CCN(c3ccc(F)cc3)CC2)nc2c1c(=O)n(C)c(=O)n2C,"inconclusive: 25.1 µM [activator, single point]",
CCc1ccc(NC(=O)c2sc3nc(C)c(C(=O)Nc4ccc(C)cc4C)c(-c4ccco4)c3c2N)cc1,"inconclusive: 10 µM [inhibitor, partial curve]",
COc1ccc(Nc2sc(C(=O)c3ccccc3)c(N)c2C(=O)Nc2cc(C)ccc2C)c(OC)c1,active: 10 µM,
Cc1oc(-c2ccccc2)nc1CNC(=O)NC1CCCCC1,,inactive: -4.56%
Cc1cccc(-c2nc3scc(CCNS(=O)(=O)c4ccc(F)cc4C)n3n2)c1,,inactive: 25.9%
COc1ccc(N/C(=N\c2nc(C)cc(C)n2)NC(=O)C(C)C)cc1OC,"inconclusive: 39.8 µM [activator, single point]",
C[C@@H]1O[C@H](O[C@@H]2\C=C/C=C\C=C/C=C\C[C@H](C)OC(=O)/C=C\[C@H]3O[C@@H]3C[C@H](O)C[C@]3(O)C[C@@H](O)[C@@H](C(=O)O)[C@H](C2)O3)[C@@H](O)[C@H](N)[C@@H]1O (stereo in doubt),"inconclusive: 15.8 µM [activator, single point]",
O=C(Cn1nnc2sc(-c3ccccc3)cc2c1=O)Nc1cccc(C(F)(F)F)c1,,inactive: -20.9%
COC(=O)[C@H](Cc1ccccc1)NC(=O)O[C@H]1C(=O)c2ccc(OC)cc2O[C@@H]1c1ccc2c(c1)OCO2,"inconclusive: 20 µM [inhibitor, partial curve, poor fit]",
Cc1ccc(NC(=O)COc2ccc3oc4c(c3c2)CCCC4)nc1,"inconclusive: 25.1 µM [inhibitor, single point]",
O=C(Nc1nnc(CCc2ccccc2)s1)c1cccs1,"inconclusive: 39.8 µM [inhibitor, single point]",

Structure (SMILES),Potency,"max response, negative = inhibition"
CCn1c(C)c(C)c2cc(C(=O)Nc3cccc(Cl)c3)ccc21,"inconclusive: 25.1 µM [inhibitor, single point]",
COc1cccc(-c2nc3c(C#N)c[nH]n3c2NC2CCCC2)c1OC,"inconclusive: 39.8 µM [activator, single point]",
CC1CCCCN1C(=O)c1ccc2c(c1)N(Cc1ccc(F)cc1)C(=O)c1ccccc1S2(=O)=O (stereo not given),"inconclusive: 39.8 µM [activator, single point]",
COc1cc2nc(NC(=O)c3ccc(S(=O)(=O)N4CCc5ccccc54)cc3)sc2cc1OC,,inactive: -28.4%
COc1ccc(C(=O)CSc2cc(C)nc3nc(C)nn23)cc1OC,"inconclusive: 31.6 µM [activator, single point]",
COc1cccc(OCC(=O)NNC(=O)c2ccc(-c3ccccc3)cc2)c1,active: 25.1 µM,
Cc1ccc(S(=O)(=O)c2cnc(SCC(=O)Nc3ccc4c(c3)OCCO4)[nH]c2=O)cc1C,"inconclusive: 39.8 µM [activator, single point]",
COc1cccc(-c2nn(-c3ccccc3)cc2C(=O)n2nnc3ccccc32)c1,active: 31.6 µM,
COc1cccc(NC(=O)c2ccc(CN3CCN(c4ccccc4)CC3)cc2)c1,"inconclusive: 31.6 µM [inhibitor, single point]",
O=C(Cn1nnc(-c2cccs2)n1)NCCc1ccccc1,"inconclusive: 10 µM [inhibitor, partial curve]",
O=c1[nH]c2cc3c(cc2cc1C(c1nnnn1C1CCCC1)N1CCCc2ccccc21)OCCO3 (stereo not given),"inconclusive: 10 µM [inhibitor, partial curve, poor fit]",
Cc1cc(OCC(=O)N2CCC(c3nc4ccccc4s3)CC2)ccc1Cl,"inconclusive: 31.6 µM [activator, single point]",
NC(N)=Nc1nc(CSCC/C(N)=N/S(N)(=O)=O)cs1,active: 10 µM,
NC(=O)[C@@H]1CCCN1Cc1ccc2c(c1)OCO2,,inactive: 0.0205%
COc1ccc(Cl)cc1Nc1ccc2cc(S(=O)(=O)N3CCCCC3)ccc2n1,active: 25.1 µM,
COc1cccc(N2CC(C(=O)Nc3ccc(C(=O)OC(C)C)cc3)CC2=O)c1 (stereo not given),"inconclusive: 31.6 µM [activator, single point]",
Cc1ccc(N/C(N)=N/c2nc(CSc3ccc(C)cc3)cc(=O)[nH]2)cc1,"inconclusive: 39.8 µM [inhibitor, single point]",
CCOC(=O)c1ccc(NC(=O)N2CC3CCCN3c3ccccc32)cc1 (stereo not given),,inactive: -26%
COc1ccc2nc(NC(=O)C3CCCN(S(=O)(=O)c4cccc5nonc45)C3)sc2c1 (stereo not given),"inconclusive: 25.1 µM [inhibitor, single point]",
O=C1OCCN1C(=O)[C@H]1[C@H](c2ccc([N+](=O)[O-])cc2)C(c2ccccc2)=NN1c1ccccc1,"inconclusive: 20 µM [inhibitor, single point]",
